In general, % Inhibition refers to the drop in the measured response relative to a control, in per cent.

The campaign covered roughly 150,000 compounds. About 540 (0.36%) showed an effect of 50% or more. The list shows a part of the results.

This assay relates to Plasmodium falciparum. Briefly: Primary screen in NF54 nanoGlo assay, in single point, at 2uM, 72h; a lower Z score goes with more inhibition. It is filed as functional, Erythrocyte. To be noted: timepoint 72 hour.
On to `CN(CCN1CCCCCC1)Cc1cc(C#CCO)cs1`, for which the “% Inhibition” value is on record as -1% and the Z score amounted to 0.23.
As for `Cn1nc(-c2ccccc2F)c2cc(C(=O)N3CCN(c4ccc(F)cc4)CC3)sc21`, the “% Inhibition” value is listed as -10% and the Z score was 1.26.
As for `Cn1nc(C2CCC2)cc1NC(=O)NCc1ccsc1`, the “% Inhibition” value is reported as -13% and the Z score worked out at 2.06.
Consider `CNC(=O)c1cnc(-c2ccc(F)cc2)n(CC(=O)Nc2cccc(C)c2)c1=O`, for which the “% Inhibition” value was -17% and the Z score is recorded as 2.72.
The corresponding values for `CC[C@](C)(NCCc1c[nH]c2ccccc12)c1nnnn1CCOC` are 38% and -1.29.
On to `O=C(Cc1ccccc1F)Nn1cnc2ccccc2c1=O`, for which the “% Inhibition” value was found to be 2% and the Z score was -0.43.
For `O=c1c2nnc3ncnn3c2ccn1-c1ccc(Oc2ccccc2)cc1`, the “% Inhibition” value is recorded as 13% and the Z score was -1.86.
As to `COc1ccc(Oc2c(CN(CC3CC3)C(=O)c3ccc(OC)cc3)c(C)nn2-c2cccc(Cl)c2)cc1`, the “% Inhibition” value was -3% and the Z score worked out at 0.48.
`Clc1cc(CN2CCC[C@H](Cn3cncn3)C2)cc2c1OCCO2`: the “% Inhibition” value was -10% and the Z score worked out at 1.39.
With `O=C(NC(c1nccs1)C(F)(F)F)N1CC2CCC(O)CC2C1` (stereo not drawn), the “% Inhibition” value is listed as -5% and the Z score was 0.87.
With `CCN1C[C@@H]2CCN(CCc3ccccc3)C[C@]2(c2nc(C)no2)C1`, the “% Inhibition” value is listed as -4% and the Z score was 0.58.
For `CC1(C)C[C@@H](NC(=O)c2cccnc2OCc2ccccc2F)CCO1`, in that order: -15% and 2.88.
The corresponding values for `Cc1cc2nc3n(c(=O)c2n1CC(=O)N1CCCc2ccccc21)CCCC3` are -2% and 0.23.
In the case of `O=S(=O)(Cc1ccco1)[C@H]1CCN(S(=O)(=O)Cc2cccc(C(F)(F)F)c2)C1`, the “% Inhibition” value was -4% and the Z score is reported as 0.72.
In the case of `CCC[C@@]1(C)C(=O)NCCN1Cc1ncc(C)o1`, the “% Inhibition” value is 1% and the Z score was -0.1.
Turning to `Cc1cc(C)c2c(c1)[C@@H](NCc1nnc3n1CCCCC3)CCCO2`, the “% Inhibition” value is recorded as -4% and the Z score was 0.85.
With `OCCCCN1CCc2[nH]nc(-c3ccc(-c4ccccc4)cc3)c2C1`, the “% Inhibition” value is on record as -3% and the Z score turned out to be 0.45.
As for `COc1cccc(C(=O)n2nc(Nc3ccc(Cl)cc3)cc2Nc2ccc(Cl)cc2)c1`, the “% Inhibition” value worked out at 25% and the Z score is given as -2.88.
Consider `Cc1cccc(N2CCC3(CCCN3Cc3cccnc3N)CC2)n1`, for which the “% Inhibition” value is reported as -17% and the Z score stood at 1.66.
For `Cc1nc(N2CCCC2)ccc1NC1CCN(C(=O)C(C)(C)C)CC1`, the “% Inhibition” value is on record as -9% and the Z score came to 0.97.
In the case of `CN(C1CCC1)S(=O)(=O)c1ccc(OCC(F)(F)F)nc1`, the “% Inhibition” value is reported as -5% and the Z score is 0.77.
For the compound `CCc1nc(CN2C(=O)COc3cc(S(=O)(=O)Nc4ccc(C)cn4)c(C)cc32)no1`, the “% Inhibition” value is -1% and the Z score was 0.09.
In the case of `O=C1CN(CCCNC(=O)Nc2cc(F)c(C(F)(F)F)cc2F)CCN1`, the “% Inhibition” value is -8% and the Z score was 1.14.
In the case of `O=C(c1cn[nH]c1)N1CCC([C@H]2c3[nH]cnc3CCN2C(=O)Cc2ccccc2)CC1`, the “% Inhibition” value is -11% and the Z score stood at 1.6.
On to `CNS(=O)(=O)C[C@H]1CCCN1Cc1cn(C)nc1C1CCCC1`, for which the “% Inhibition” value is 3% and the Z score is on record as -0.41.
The corresponding values for `CC(C)c1ccc(S(=O)(=O)N2CCNC(=O)C23CCCC3)cc1` are -7% and 1.31.
For `Cc1ccccc1CN[C@@H]1C[C@@H](O)[C@H](CO)[C@H]1Cc1ccnc(-c2ccccc2F)n1`, the “% Inhibition” value was -2% and the Z score is recorded as 0.31.
For the compound `COC(=O)c1c(C)[nH]c(C(=O)Nc2ccc(-c3cn4cccc(C)c4n3)cc2)c1C`, the “% Inhibition” value is listed as 15% and the Z score is -1.95.
`CCc1nc2ccccc2n1[C@@H](CC)C(=O)N(C)Cc1ccon1`: the “% Inhibition” value is recorded as 0% and the Z score was determined as 0.05.
`O=C(NCCC1=CCCC1)NO[C@@H]1CCCCO1`: the “% Inhibition” value is -4% and the Z score came out at 0.52.
On to `CN(C1CCOCC1)S(=O)(=O)c1ccc2c(c1)C(=O)CCC2`, for which the “% Inhibition” value came to 9% and the Z score is given as -1.22.
In the case of `CCn1ncc(C(=O)N(CCCN2CCCC2=O)C2CCOCC2)c1C`, the “% Inhibition” value was -5% and the Z score turned out to be 0.87.
The corresponding values for `O=C(c1ccc2ccccc2n1)N1CC[C@H](Cc2nncn2CC2CC2)C1` are -3% and 0.6.
As for `O=C(c1ccccn1)N1CC[C@@]2(CCCN(C3CCCCC3)C2=O)C1`, the “% Inhibition” value came out at 10% and the Z score was -1.71.
With `Cc1nc(CNC(=O)Nc2ccccc2OC2CCN(C)CC2)sc1C`, the “% Inhibition” value is recorded as -18% and the Z score was determined as 1.68.
Turning to `Cc1cc(C)nc(NCC2(N3CCOCC3)CCOCC2)n1`, the “% Inhibition” value is recorded as -2% and the Z score is 0.23.
For the compound `Cc1cc(CN2CCN(C(=O)Nc3c(F)c(F)c(F)c(F)c3F)CC2)on1`, the “% Inhibition” value came to 7% and the Z score is on record as -1.37.
`O=S(=O)(CC1CCCCC1)N1CCCC1`: the “% Inhibition” value worked out at 15% and the Z score is given as -1.75.
The corresponding values for `CCC(=O)Nc1cccc(-n2nc(OC(C)C)nc2-c2cccs2)c1` are -3% and 0.41.
`CC(C)(C)c1ccc(C(=O)Nc2cc(-c3ccccc3F)nn2-c2ccccc2)cc1`: the “% Inhibition” value is on record as -9% and the Z score is listed as 1.28.
As to `Cc1ccc(-c2nc3n(CC(=O)Nc4ccc(Cl)cc4)c4c(c(=O)n3n2)CCC4)cc1`, the “% Inhibition” value is recorded as -3% and the Z score was 0.31.
With `C[C@H]1C(=O)N(C)C[C@H](CO)N1Cc1ccc2c(c1)OCCO2`, the “% Inhibition” value was -11% and the Z score amounted to 1.35.
`CC(C)C[C@H](NC(=O)c1ccnn1CCO)C(N)=O`: the “% Inhibition” value is reported as -14% and the Z score stood at 1.76.
As to `O=C(NC1CCN(Cc2ccccc2)CC1)c1cnn2c1OCCC2`, the “% Inhibition” value is listed as -11% and the Z score was 1.69.
Consider `CC1CCCCN1C(=O)NCCC1CCCO1` (stereo not drawn), for which the “% Inhibition” value is -6% and the Z score is 0.74.
Take `Cc1nc2cc(CNC(=O)[C@H]3CCCN(C4CCCC4)C3)ccc2n1C`: the “% Inhibition” value is 0% and the Z score is -0.02.
Regarding `C[C@H](Nc1ccc(N2CCCC2=O)cc1)C(=O)N1CCCCC1`, the “% Inhibition” value is -11% and the Z score turned out to be 2.
On to `Cc1cccc(S(=O)(=O)CCCn2cncn2)c1`, for which the “% Inhibition” value came out at 8% and the Z score is on record as -0.96.
For the compound `COCCNC(=O)c1ccc(NC(=O)c2nnc(CC(C)C)s2)cc1`, the “% Inhibition” value is recorded as -14% and the Z score is recorded as 1.64.
For `CCCCNc1ccc(C(N)=O)c(Cl)c1`, the “% Inhibition” value came out at 3% and the Z score was -0.53.
For the compound `CCOc1ccc(NC(=O)C[C@@H]2Nc3cccc4cccc(c34)NC2=O)cc1`, the “% Inhibition” value was 7% and the Z score was -0.74.
The corresponding values for `CCOC[C@@]12CCN(C(C)=O)C[C@@H]1CN(S(=O)(=O)c1ccccc1Cl)C2` are -15% and 2.2.
`CN(CCc1ccc2c(c1)CCO2)CCS(C)(=O)=O`: the “% Inhibition” value was -6% and the Z score was 0.86.
In the case of `O=C(COC[C@H]1CCCCO1)N1CCN(c2ccc3[nH]ncc3c2)C(=O)C1`, the “% Inhibition” value was -6% and the Z score is given as 1.26.
Turning to `Cc1ccc(C)c(NC(=O)Cn2nc(N3CCCCCC3)c3ccccc3c2=O)c1`, the “% Inhibition” value is -10% and the Z score came out at 1.51.
For `CN(C)C[C@H]1CN(CCC(=O)NCc2ccccc2Cl)CCO1`, in that order: -8% and 1.03.
For `CN1c2ccccc2N(C2CCN(C(=O)c3ccc(C(F)(F)F)nc3)CC2)S1(=O)=O`, the “% Inhibition” value amounted to 5% and the Z score is listed as -0.53.
Consider `Nc1c(Cl)cc(C(=O)N2CCC3OCC(=O)NC3C2)cc1Cl` (stereo not drawn), for which the “% Inhibition” value amounted to 0% and the Z score came out at 0.06.
`CCCN1C[C@]23C=C[C@H](O2)[C@H](C(=O)NCCc2scnc2C)[C@@H]3C1=O`: the “% Inhibition” value is -16% and the Z score is recorded as 1.49.
As to `Cc1ccccc1S(=O)(=O)N[C@H]1CCN(c2ccc(=O)n(C)n2)C1`, the “% Inhibition” value is given as -3% and the Z score was found to be 0.45.
In the case of `CCNC(=O)c1ccccc1NC(=O)CC`, the “% Inhibition” value was -23% and the Z score is 1.98.
As for `CC(C)NC(=O)NC[C@H]1CCCN(Cc2ccnc(C(C)C)n2)C1`, the “% Inhibition” value is given as -13% and the Z score was determined as 1.31.
Take `CN(C(=O)c1cccc(Nc2cnccn2)c1)c1ccc(F)cc1`: the “% Inhibition” value is on record as 16% and the Z score was -2.09.
In the case of `COC[C@@H]1CN(c2cnccn2)C[C@H]1C(=O)NCc1c(C)nn(C)c1C`, the “% Inhibition” value is recorded as -8% and the Z score stood at 1.15.
As to `CCOC1CC(CC(=O)N[C@H]2CC(=O)N(c3cnn(C)c3)C2)C1` (stereo partly drawn), the “% Inhibition” value is listed as -20% and the Z score is reported as 2.01.
`c1coc(CN2CCC(N3CCOc4ccccc4C3)CC2)c1`: the “% Inhibition” value was found to be 0% and the Z score is listed as 0.06.
For `Cn1nccc1[C@@H]1CCCN1CC(=O)Nc1cc(F)ccc1F`, in that order: -21% and 2.29.
For `CCOc1ccc2nc(CN(Cc3cnn(C)c3)C3CC3)ccc2c1`, in that order: -7% and 1.15.
For `Cc1ccnc(NCCc2csc(C(C)C)n2)n1`, in that order: -18% and 1.77.
As for `CCc1ccc(C(=O)N2CCC3(CC2)OC[C@@H](C(=O)NCc2cccnc2)N3C(=O)c2ccc(F)cc2)cc1`, the “% Inhibition” value is -14% and the Z score was 1.41.
On to `CC(C)N1C2CCC1CN(C(=O)c1ccc(N3CCCC3)nc1)CC2` (stereo not drawn), for which the “% Inhibition” value was 35% and the Z score is on record as -3.94.
With `COCCCn1c(C)cc(C(=O)N2CCC3(CC2)CC[C@]3(C)O)c1C`, the “% Inhibition” value is given as -7% and the Z score turned out to be 0.82.
For `Cc1nc2ccnn2c(C)c1C(=O)Nc1cnn(C2CCC2)c1`, the “% Inhibition” value is on record as -13% and the Z score worked out at 1.35.
As to `COc1cc(C)nc(CON=C(N)c2ccc(N(C)C)cc2)c1`, the “% Inhibition” value came to 3% and the Z score was -0.5.
In the case of `O=C1CC2(CCN(C(=O)c3cccnc3O)CC2)CN1Cc1ccccc1`, the “% Inhibition” value was -4% and the Z score amounted to 0.56.
Take `COCCn1cc2c(n1)[C@@H](NCc1ccc(F)cc1)CCC2`: the “% Inhibition” value is reported as -3% and the Z score is 0.29.
For `O=C(CCc1nc([C@H]2CCOC2)no1)c1ccccc1`, the “% Inhibition” value is recorded as -1% and the Z score was determined as 0.17.
Take `O=C(NCc1ccco1)C1CCCC(F)C1` (stereo not drawn): the “% Inhibition” value is 1% and the Z score was -0.14.
As for `CCc1noc(C)c1NC(=O)C(=O)N1CCC[C@H]1c1ccncc1`, the “% Inhibition” value is on record as -10% and the Z score is given as 1.9.
In the case of `Cc1ccc(C(=O)N(CC(=O)N2CCc3sccc3C2COc2ccc(C(C)C)cc2)CC2CCCO2)cc1` (stereo not drawn), the “% Inhibition” value is -6% and the Z score is reported as 0.93.
As to `O=C(Cc1ccccc1CO)NC[C@H]1CCCC[C@@H]1O`, the “% Inhibition” value was found to be 3% and the Z score is -0.55.
With `CC(C)NC(=O)[C@@H]1C[C@@H](NCc2cccc(C(F)(F)F)c2)CN1C(C)C`, the “% Inhibition” value amounted to 17% and the Z score is listed as -2.3.
Regarding `COc1cccc(CC(=O)NC2CC2)c1`, the “% Inhibition” value is reported as -11% and the Z score is 1.52.
Turning to `Cc1c(CC(=O)N[C@@H](C)C2CC2)c2c(n1Cc1ccc(F)cc1)CCCC2=O`, the “% Inhibition” value is given as -12% and the Z score is 1.39.

(Values after ChEMBL document CHEMBL4888484, “Replenishing the malaria drug discovery pipeline: Screening and hit evaluation of the MMV Hit Generation Library 1 (HGL1) against asexual blood stage Plasmodium falciparum ,using a nano luciferase reporter read-out” (2022).)
